# Source: PubChem BioAssay AID1768 (National Center for Advancing Translational Sciences (NCATS), 2009)
# Out of some 270,000 compounds screened, about 620 (0.23%) were called active. The shares of active, inactive and inconclusive entries below differ from those in the screen. Calls come from the whole dose curve; as a rule, active = well fitted inhibition curve with a large enough effect in the polarisation, with a control signal flat (not every such curve was filed as active); inconclusive = small, poorly fitted or top-dose-only effect, or effect the other way, or a change in a side signal; inactive = no such curve, though single readings can be large or run the other way; the % refers to the polarisation. A potency beside an inconclusive call is a rough fit, not a confirmed value. A note “side channel” means that the fit belongs to a control or component signal, not to the main read-out.
# Molecular target: Menin (Homo sapiens) (UniProt O00255)
# Assay: qHTS Assay for Inhibitors Targeting the Menin-MLL Interaction in MLL Related Leukemias: Competition With Texas Red Labeled MLL-derived Mutant Peptide; for FP activity change, negative = inhibition: % of control where 0% means no effect
# Conditions: fluorescence polarization; FP activity change, negative = inhibition: at 61.6 µM (top of the series)
# Potency is the fitted concentration of half-maximal effect; tags give direction and shape of the fitted curve or compound fluorescence and quenching.
# UniProt O00255, sequence (O00255 whole entry, looked up): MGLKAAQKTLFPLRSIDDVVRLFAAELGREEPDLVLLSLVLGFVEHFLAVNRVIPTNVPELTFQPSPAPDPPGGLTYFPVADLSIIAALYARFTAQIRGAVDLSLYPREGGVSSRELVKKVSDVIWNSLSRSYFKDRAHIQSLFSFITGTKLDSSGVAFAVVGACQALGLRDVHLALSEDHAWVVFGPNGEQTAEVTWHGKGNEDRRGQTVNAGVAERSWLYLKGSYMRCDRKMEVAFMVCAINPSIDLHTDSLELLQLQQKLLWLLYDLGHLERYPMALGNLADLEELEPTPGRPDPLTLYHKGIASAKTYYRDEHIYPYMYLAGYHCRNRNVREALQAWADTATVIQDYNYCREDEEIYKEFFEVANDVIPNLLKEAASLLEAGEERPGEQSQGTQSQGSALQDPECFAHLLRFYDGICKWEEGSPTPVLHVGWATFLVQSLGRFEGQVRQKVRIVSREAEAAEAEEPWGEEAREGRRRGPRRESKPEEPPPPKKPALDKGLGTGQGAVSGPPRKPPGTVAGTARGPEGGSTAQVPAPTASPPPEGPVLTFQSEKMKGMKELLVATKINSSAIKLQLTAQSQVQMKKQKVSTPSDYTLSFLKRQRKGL
Compound,Potency,"FP activity change, negative = inhibition"
COc1ccc(CNC(=O)CC2Sc3ccccc3NC2=O)cc1 (stereo unspecified),"inconclusive: 39.8 µM [fluorescent, side channel, single point]",
CC(=O)c1ccc(C2CC34CN(Cc5cccc(Cl)c5)S(=O)(=O)C3CC2O4)cc1 (stereo unspecified),"inconclusive: 39.8 µM [fluorescent, side channel, single point]",
N#C/C(=C/c1ccc(-c2ccc(S(N)(=O)=O)cc2)o1)C(=O)Nc1ccccc1,"inconclusive: 31.6 µM [quencher, side channel, partial curve]",
CNC(=O)CC1C(=O)N(c2ccc(F)cc2)C(=S)N1NC(=O)c1ccc(Cl)cc1 (stereo unspecified),"inconclusive: 10 µM [inhibitor, partial curve, poor fit]",
NC(Cc1cc(I)c(Oc2ccc(O)c(I)c2)c(I)c1)C(=O)O (stereo unspecified),"inconclusive: 39.8 µM [quencher, side channel, single point]",
COc1ccccc1NC(=O)c1cc2cc(Br)ccc2cc1O,"inconclusive: 7.08 µM [quencher, side channel, partial curve]",
Cc1ccc2c(CN3CC(C)CC(C)C3)cc(=O)oc2c1C (stereo unspecified),"inconclusive: 10 µM [fluorescent, side channel, partial curve]",
O=C(N/N=C/c1cc(Cl)cc([N+](=O)[O-])c1O)NC12CC3CC(CC(C3)C1)C2,"inconclusive: 15.8 µM [quencher, side channel, partial curve]",
Cc1ccc(NC(=O)Nc2nnc(-c3ccncc3)s2)cc1,"inconclusive: 15.8 µM [fluorescent, side channel, partial curve]",
O=C(CSc1ccsc1[N+](=O)[O-])N1CCN(c2ccc(Cl)cc2)CC1,"inconclusive: 22.4 µM [quencher, side channel, partial curve]",
CCOc1ccc(CN2CCN(Cc3nc(C(C)C)cs3)CC2CCO)cc1 (stereo unspecified),"inconclusive: 11.2 µM [fluorescent, side channel, partial curve]",
CCCCCc1ccc(-c2cn(Cc3ccc(C(=O)c4ccccc4)cc3)nn2)cc1,"inconclusive: 14.1 µM [fluorescent, side channel, partial curve]",
CNC(=S)NNC(=O)c1ccc2c(c1)OCO2,"inconclusive: 10 µM [inhibitor, partial curve]",
O=S(=O)(c1ccc2ccccc2c1)N1CCN(S(=O)(=O)N2CCCCC2)CC1,"inconclusive: 20 µM [fluorescent, side channel, partial curve]",
Cc1cccc(NS(=O)(=O)c2nnc(NC(=O)c3ccc(Cl)cc3)s2)c1,"inconclusive: 20 µM [quencher, side channel, partial curve]",
CS(=O)(=O)N1CCc2cc(-c3csc(NC(=O)Cc4cccs4)n3)ccc21,"inconclusive: 7.08 µM [quencher, side channel, partial curve]",
CCn1cc([N+](=O)[O-])c(C(=O)Nc2cc(C)on2)n1,,inactive: -4.62%
CC(C)C1Nc2c(O)cc(Cl)c([N+](=O)[O-])c2C2C=CCC21 (stereo unspecified),"inconclusive: 22.4 µM [quencher, side channel, partial curve]",
COc1ccc2ccc3c(c2c1)N=CC1(O3)N(C)c2ccccc2C1(C)C (stereo unspecified),,inactive: 5.39%

Compound,Potency,"FP activity change, negative = inhibition"
O=C(CSc1nccn(-c2cccc(F)c2)c1=O)Nc1ccc(Cl)cc1F,"inconclusive: 39.8 µM [fluorescent, single point]",
O=C1OC(c2ccccc2)=C/C1=C/N1CCCCC1,,inactive: 29.9%
Cc1cc(N/N=C/c2ccc(O)cc2O)nc(-c2ccccc2O)n1,"inconclusive: 7.08 µM [quencher, side channel, partial curve]",
Cc1ccc(NC(=O)C2SC(=Nc3ccccc3)C(C(=O)Nc3ccc(Cl)cc3)=C2N)cc1 (stereo unspecified),"inconclusive: 3.55 µM [quencher, side channel, full curve, poor fit]",
COC(=O)[C@@H](NC(=O)Nc1ccc(C(C)=O)cc1)C(C)C,"inconclusive: 8.91 µM [inhibitor, single point]",
O=C1c2ccccc2C(=O)N1CCSC(=S)N1CCOCC1,"inconclusive: 31.6 µM [fluorescent, side channel, single point]",
CC(NC(=S)NC1CCCCC1)C(c1ccccc1)N1CCOCC1 (stereo unspecified),"inconclusive: 39.8 µM [inhibitor, single point]",
Cc1ccc(NC(=O)CC2Oc3ccc(C)cc3NC2=O)c(C)c1 (stereo unspecified),"inconclusive: 28.2 µM [fluorescent, side channel, single point]",
S=C(Nc1ccc2cn[nH]c2c1)Nc1ccc(Cl)cc1Cl,"inconclusive: 22.4 µM [quencher, side channel, single point]",
Cc1ccc(CCNS(=O)(=O)c2ccc(C)cc2)cc1,"inconclusive: 14.1 µM [inhibitor, single point]",
CCOC(=O)N1CCC(NC(=O)c2cccc3c2C(=O)N(c2ccc(OC)cc2)C3)CC1,"inconclusive: 39.8 µM [quencher, side channel, single point]",
Cn1c(N/N=C/c2ccccc2)nc2sc3c(c2c1=O)CCC3,"inconclusive: 15.8 µM [quencher, side channel, partial curve]",
Nc1nc(CSC(=S)N2CCCCC2)nc(Nc2ccccc2)n1,"inconclusive: 31.6 µM [quencher, side channel, single point]",
O=C1N=c2ccccc2=C1c1sc(Nc2cccc(O)c2)nc1O,,inactive: 0.45%
COc1cc(C(=O)Nc2ccc(NC(C)=O)cc2)ccc1OCc1ccccc1,"inconclusive: 39.8 µM [fluorescent, side channel, single point]",
CCCc1ccc(C2C3=C(CC(C)(C)CC3=O)NC3=C2C(=O)c2ccccc23)cc1 (stereo unspecified),"inconclusive: 14.1 µM [quencher, side channel, partial curve]",
COc1cccc(CC(NC(C)=O)C(=O)NC2CCN(c3nnnn3-c3ccccc3)CC2)c1 (stereo unspecified),"inconclusive: 0.631 µM [inhibitor, partial curve, poor fit]",
c1csc(CNc2nc(-c3ccc4c(c3)OCO4)nc3ccccc23)c1,"inconclusive: 12.6 µM [quencher, side channel, partial curve]",
CCCc1nc2sc3ccccc3c(=O)c2c(=O)n1CCOC,"inconclusive: 31.6 µM [fluorescent, side channel, single point]",

Compound,Potency,"FP activity change, negative = inhibition"
COc1cccc(Cn2c(=O)c(C)nc3cnc(Nc4cccc(OC)c4)nc32)c1,"inconclusive: 3.98 µM [quencher, side channel, single point]",
Cc1ccc(-c2nnn(CC(=O)N(c3cnc4ccccc4c3)C(C(=O)NC3CCCC3)c3ccncc3)n2)o1 (stereo unspecified),"inconclusive: 12.6 µM [fluorescent, side channel, partial curve]",
O=C(OCC(=O)N1CCc2ccccc21)c1c2c(nc3ccccc13)CCCC2,"inconclusive: 5.01 µM [inhibitor, full curve, poor fit]",
COc1ccc(/C=C/c2nc(N)nc(-c3ccccc3O)n2)cc1OC,"inconclusive: 14.1 µM [quencher, side channel, partial curve]",
CN(C/C=C\c1ccccc1)Cc1cccc2ccccc12,"inconclusive: 35.5 µM [fluorescent, side channel, single point]",
CCOc1cc(OCC)cc(C(=O)NCc2ccco2)c1,,inactive: 14.6%
CC[C@H](C)/C=C(C)/C=C/C1=CC2=CC(=O)[C@]3(C)OC(=O)[C@@H](C(C)=O)[C@@H]3C2=CO1,"inconclusive: 22.4 µM [fluorescent, side channel, partial curve]",
CCCC(Oc1ccc(Br)cc1)c1nc2c3cc(OC)c(OC)cc3nc(=S)n2[nH]1 (stereo unspecified),"inconclusive: 8.91 µM [quencher, side channel, partial curve]",
N#Cc1sc2nc(-c3cccs3)cc(-c3ccccc3)c2c1N,active: 12.6 µM,
Cc1ccccc1OCC(O)Cn1c(=N)n(CCN2CCOCC2)c2ccccc21 (stereo unspecified),"inconclusive: 39.8 µM [inhibitor, single point]",
COc1ccc(CNC(=O)COC(=O)c2cc(-c3ccco3)nc3ccccc23)cc1,"inconclusive: 15.8 µM [quencher, side channel, partial curve]",
CCCCCC1CC(=O)N(Cc2ccccc2)C(=O)N1 (stereo unspecified),"inconclusive: 39.8 µM [fluorescent, side channel, single point]",
O=C(/C=C/c1ccco1)Nc1ccc(S(=O)(=O)N2CCOCC2)cc1,"inconclusive: 15.8 µM [quencher, side channel, partial curve]",
O=C(Cc1cccs1)NCCSc1c(-c2ccc(Cl)cc2)[nH]c2ccccc12,"inconclusive: 7.94 µM [quencher, side channel, full curve]",
O=c1nc(N2CCCCCC2)nc(N2CCCCCC2)[nH]1,"inconclusive: 4.47 µM [inhibitor, full curve, poor fit]",
CCCCC[n+]1cccc2c3ccccc3ccc21,"inconclusive: 35.5 µM [inhibitor, single point]",
O=C1CC(c2cc(F)ccc2F)c2cc3c(cc2N1)CCC3 (stereo unspecified),"inconclusive: 5.62 µM [fluorescent, side channel, full curve]",
O=C(N/N=C/c1cccnc1)c1cccc(F)c1,"inconclusive: 1.41 µM [quencher, side channel, full curve, poor fit]",
